These results are taken from PubChem BioAssay AID2202238 (Ras Initiative Chemistry Research Team, Frederick National …, 2025).

The campaign covered roughly 2,200 compounds. Fewer than 10 were called active. Some of the results follow. Entries without a call are filed as inconclusive in the source.

The assay has as its target GTPase KRas (Homo sapiens) (UniProt P01116). Briefly: Covalent labelling of cysteine mutants by fragments, read by mass spectrometry (AID 2202238). Details: protein at 5 µM with 500 µM competing thiol for 1.5 h. Conditions: KRAS G12D cysteine mutants, disulfide tethering, MALDI-TOF labeling; stronger effect = higher value; H27C mutant labeling; fragment at 500 µM.
UniProt P01116, sequence (P01116 whole entry, looked up, the tested form may be a part): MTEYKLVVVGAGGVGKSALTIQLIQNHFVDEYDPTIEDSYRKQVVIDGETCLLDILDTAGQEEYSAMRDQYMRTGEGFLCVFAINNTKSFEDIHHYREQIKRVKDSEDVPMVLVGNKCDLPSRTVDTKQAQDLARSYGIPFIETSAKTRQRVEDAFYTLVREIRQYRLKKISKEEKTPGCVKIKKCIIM
`O=C(NCCS)c1ccc(C(F)(F)F)cc1N1CCCC1` yielded a percent labeling of 12.5%.

`O=C(CCS)Nc1cccc(-c2noc(C(F)F)n2)c1`: the percent labeling amounted to 31.3%.

The compound `CC1CCc2ccccc2N1CCC(=O)NCCS` (centres undefined) gave a percent labeling of 28.5%.

In turn, `Cc1nc2cc(C(=O)NCCS)ccc2c(=O)[nH]1` displayed a percent labeling of 43%.

In turn, `CN1C(=O)CCc2ccc(C(=O)NCCS)cc21` gave a percent labeling of 51.5%.

`CN(C)CCN(Cc1cccs1)C(=O)CCS`: the percent labeling turned out to be 54.2%.

In the case of `CC1CCN(c2ccc(C(=O)NCCS)cc2)C1` (centres undefined), the percent labeling amounted to 14.5%.

For the compound `O=C(NCCS)[C@@H]1CCCN1C(=O)Nc1ccc2c(c1)OCCO2`, the percent labeling turned out to be 29.3%.

`CCNC(=O)COc1cccc(CNC(=O)CCS)c1` came in with a percent labeling of 38.5%.

With `O=C(NCCS)C1CCN(Cc2coc(-c3ccccc3)n2)CC1`, the percent labeling stood at 41.5%.

The compound `COc1ccc2cccc(CC(=O)NCCS)c2c1` registered a percent labeling of 30.6%.

Regarding `O=C(CCS)N1Cc2cccn2C2(CCOCC2)C1`, the percent labeling is 0%.

`O=C(NCCS)C1CCN(C(=O)c2cccc3ccccc23)CC1` displayed a percent labeling of 47.6%.

`CN1C(=O)CO[C@@H](C(=O)NCCS)[C@H]1c1cnn(C)c1` registered a percent labeling of 31.2%.

`O=C(CCS)Nc1cc2ccc(Br)cn2n1`: the percent labeling amounted to 37.6%.

With `O=C(CCS)Nc1ccc(Cl)cc1-c1ccccc1`, the percent labeling was determined as 31%.

`Cn1nc(-c2ccco2)cc1NC(=O)CCS` registered a percent labeling of 34.3%.

Consider `O=C(CCS)N1CC(c2n[nH]c3c2COCC3)C1`, for which the percent labeling was 38%.

In turn, `Cc1nc(-c2cccc(C(=O)NCCS)c2)no1` registered a percent labeling of 34.9%.

`Cc1cc(C(=O)NCCS)c2c(C)nn(-c3ccccc3)c2n1` came in with a percent labeling of 20.9%.

`COc1cc(OC)c2cc(C(=O)NCCS)[nH]c2c1` had a percent labeling of 34.4%.

On to `CCOc1ccc(NC(=O)c2ccc(NC(=O)CCS)cc2)cc1`, for which the percent labeling worked out at 9.5%.

As to `O=C(NCCS)c1cccc(-n2nccc2C(F)(F)F)c1`, the percent labeling amounted to 35.2%.

The compound `Cc1cc(Cl)cc2cc(C(=O)NCCS)[nH]c12` returned a percent labeling of 25.7%.

`COc1cccc(COCC(=O)NCCS)c1` came in with a percent labeling of 32.3%.

Compound `O=C(CCS)Nc1ccc2c(c1)C(F)(F)C(=O)N2` registered a percent labeling of 35.4%.

`O=C(CCS)N1CC(O)(c2cccnc2F)C1` had a percent labeling of 35.3%.

Compound `O=C(NCCS)c1cccc(Oc2ccncc2)c1Cl` displayed a percent labeling of 54.7%.

The compound `Cc1n[nH]c(C)c1C1COCCN1C(=O)CCS` (centres undefined) registered a percent labeling of 43.4%.

Compound `CC(C)C(=O)Nc1ccc(C(=O)NCCS)cc1` yielded a percent labeling of 27.1%.

For the compound `Cn1ncc(NC(=O)CCS)c1-c1ccc(F)cc1F`, the percent labeling stood at 42.2%.

In turn, `CCNC(=O)Cn1cc(-c2cccc(NC(=O)CCS)c2)cn1` gave a percent labeling of 43%.

`CCC(C(=O)NCCS)n1nnc(-c2ccsc2)n1` (centres undefined) showed a percent labeling of 27.1%.

For `CN(Cc1nc2ccsc2c(=O)[nH]1)C(=O)CCS`, the percent labeling was 34.6%.

Compound `O=C(NCCS)c1cncc(-c2ccc(F)cc2)c1` yielded a percent labeling of 37.1%.

For the compound `CC(C)(COCc1ccccc1)C(=O)NCCS`, the percent labeling amounted to 26.1%.

On to `CC(C)Cn1ncc2cc(C(=O)NCCS)cnc21`, for which the percent labeling worked out at 31.8%.

With `O=C(CCS)N1CCN(c2ncnc3c2oc2ccccc23)CC1`, the percent labeling is 39.7%.

Regarding `O=C(CCS)NCC1(c2cccc(Cl)c2)CC1`, the percent labeling was 22.4%.

`O=C(CCS)NCc1cc(OC2CCC2)ccn1` gave a percent labeling of 33.1%.

Take `O=C(CCS)NCc1cccc(OC(F)F)c1`: the percent labeling came to 37.3%.

`O=C(CCS)N1CCC(Oc2ccc3nccn3c2)CC1` gave a percent labeling of 57.4%.

Turning to `Cc1ccc(C2CCC(NC(=O)CCS)CC2)cc1` (centres undefined), the percent labeling was 20.6%.

In turn, `O=C(CCS)NC1(Cc2ccccc2F)CCCCC1` showed a percent labeling of 24.3%.

On to `Cc1c(NC(=O)CCS)cnn1CC(F)F`, for which the percent labeling was determined as 36.8%.

In turn, `O=C(NCCS)c1ccc(-n2cccn2)c(F)c1` gave a percent labeling of 28.3%.

Regarding `O=C(Cn1c2ccccc2c(=O)c2ccccc21)NCCS`, the percent labeling was determined as 27.3%.

`CCOC(=O)C12CC(C)(C1)OC21CCN(C(=O)CCS)CC1` gave a percent labeling of 39%.

Turning to `CC1(C)CN(C(=O)CCS)c2cc(F)ccc21`, the percent labeling amounted to 27%.

The compound `Cn1nc(C(F)(F)F)cc1-c1ccc(NC(=O)CCS)cc1` gave a percent labeling of 23%.

In turn, `CN1CCN(C(=O)CCS)CCC12CCOCC2` returned a percent labeling of 36.4%.

Take `CCC(=O)Nc1cccc(NC(=O)CCS)c1C`: the percent labeling turned out to be 33.4%.

In the case of `O=C(Cn1cccc(C(F)(F)F)c1=O)NCCS`, the percent labeling amounted to 34.6%.

`CC(=O)NCC1CCn2ncc(C(=O)NCCS)c2C1` (centres undefined) showed a percent labeling of 36.1%.

Regarding `O=C(Cc1cnn(Cc2ccccc2)c1)NCCS`, the percent labeling is 28.1%.

As to `Cc1nn(C)c(C)c1C(CC(=O)NCCS)C(F)(F)F` (centres undefined), the percent labeling stood at 27%.

For the compound `O=C(CC(n1ccnc1)C(F)(F)F)NCCS` (centres undefined), the percent labeling amounted to 22.3%.

Regarding `O=C(CCS)N1CC2C(C(F)(F)F)(C1)CS2(=O)=O` (centres undefined), the percent labeling came to 40.5%.

As for `O=C(NCCS)C(c1ccccc1)n1cccn1` (centres undefined), the percent labeling stood at 35.4%.

Compound `O=C(NCCS)c1c[nH]c(=O)c(Br)c1` had a percent labeling of 45.4%.

In the case of `CCOc1ncc(C(=O)NCCS)cc1Cl`, the percent labeling amounted to 25.9%.

In turn, `O=C(NCCS)C(Oc1ccc(Br)cc1Cl)c1ccccc1` (centres undefined) had a percent labeling of 18.6%.

Compound `Cc1cc2c(o1)CC(C)(C)CC2NC(=O)CCS` (centres undefined) registered a percent labeling of 23.1%.

As to `CC(=O)NC(CC(=O)NCCS)c1ccc(F)cc1F` (centres undefined), the percent labeling stood at 32.9%.

In the case of `CCc1nn(C)c(OC)c1CNC(=O)CCS`, the percent labeling came to 29.9%.

`O=C1CC(Cc2ccc(C(=O)NCCS)cc2)C(=O)N1` (centres undefined) showed a percent labeling of 43.1%.

`O=C(Cc1csc(-c2sccc2Br)n1)NCCS` showed a percent labeling of 22%.

Take `CN1C(=O)CCC(C(=O)NCCS)C1c1ccccc1` (centres undefined): the percent labeling is 34.8%.

In turn, `O=C(CCS)NCc1ncc(-c2ccc(F)cc2)[nH]1` displayed a percent labeling of 36.7%.

Turning to `COC(=O)c1cc2c(n1C)CCN(C(=O)CCS)C2`, the percent labeling was 40.7%.

On to `O=C(CCS)NCCc1noc2ccccc12`, for which the percent labeling was 34.6%.

`CC(=O)NC(Cc1ccc2c(c1)OCO2)C(=O)NCCS` (centres undefined) gave a percent labeling of 41.7%.

`O=C(NCCS)C1CCCN(C(=O)c2ccc3[nH]ncc3c2)C1` (centres undefined) yielded a percent labeling of 36.9%.

Compound `Cc1ccc(NC(=O)CCS)cc1NC(=O)CCN(C)C` had a percent labeling of 67.3%.

`Cc1cc(C)nc(-n2[nH]c(C(=O)NCCS)cc2=O)n1` registered a percent labeling of 20.4%.

`COc1ccccc1Nc1ccc(C(=O)NCCS)cc1` came in with a percent labeling of 28%.

As to `Cn1nccc1C1(CNC(=O)CCS)CC1`, the percent labeling came to 32.7%.

In the case of `CC1(C)CN(C2(CNC(=O)CCS)CCCCC2)CCO1`, the percent labeling is 41.3%.

In the case of `COc1ccc(-c2noc(C(=O)NCCNC(=O)CCS)n2)cc1`, the percent labeling worked out at 26.3%.

`CC1(C)CCc2cc(NC(=O)CCS)ccc2O1` yielded a percent labeling of 29.8%.

As for `CC1Cc2ccccc2N1Cc1occc1C(=O)NCCS` (centres undefined), the percent labeling stood at 11.1%.

Compound `Cc1cc(C(=O)NCCS)[nH]c1C` yielded a percent labeling of 27.4%.

In the case of `CC(Cc1cnc2ccccc2n1)C(=O)NCCS` (centres undefined), the percent labeling came to 28%.

With `O=C(CCS)NC1CCN(c2c(F)cccc2F)C1` (centres undefined), the percent labeling worked out at 27.3%.

As to `O=C(NCCS)c1cc(COc2ccccc2F)on1`, the percent labeling was 31.7%.

Consider `COc1cc(OC)c2[nH]c(C(=O)NCCS)cc2c1`, for which the percent labeling was found to be 22.9%.

The compound `CCCn1c(=O)n(CCC(=O)NCCS)c2ccccc21` came in with a percent labeling of 36.3%.

In the case of `O=C(CCS)Nc1ccc(Oc2ccc(Cl)cc2)cn1`, the percent labeling was 33.8%.

Turning to `Cc1ccc(CC2CN(C(=O)CCS)C2)cc1`, the percent labeling is 42.1%.
